# Test results taken from article PMC10668032.
# This is one part of the list. At the low end of the ranking the order means little.
# Biological target: SIX1 homeodomain (reference allele) (UniProt Q15475)
# Assay: universal protein binding microarray
# Settings: Universal all-10-mer PBM (8x60K, AMADID 030236), 300 nM GST-tagged protein, Alexa Fluor 488 anti-GST; buffer, salt, pH and temperature not stated; high values mean tight binding; most listed sequences are background and not binding sites; double strand, one strand shown
row,Sequence,binding signal [E-score]
1,CAGAACCA,-0.147
2,CGATTGCG,-0.135
3,CACGATCA,0.172
4,GGCATAAC,-0.174
5,CCAACTTA,-0.0644
6,CTTCATTC,-0.144
7,AGGGATGG,0.0666
8,CAGCAAGC,-0.168
9,GGTGGCGA,-0.113
10,GGCACTTA,-0.195
11,GCCTGAAC,-0.27
12,CCCATCGA,0.127
13,GATTGCGC,-0.123
14,CAGAAGAA,-0.205
15,CATCTCAG,0.227
16,CGCATTAC,0.0348
17,AGCAAACG,-0.202
18,CCGTTAGC,-0.186
19,GACAATCC,0.18
20,GATGTAAA,-0.0741
21,GATGGCAC,0.0184
22,GAATGCTA,-0.0195
23,CCTAAAAA,-0.154
24,AGCCTTAA,-0.251
25,ACTTAAGC,-0.191

row,Sequence,binding signal [E-score]
1,ACTCAGCA,-0.163
2,GTTAGTCA,-0.0628
3,ACATCCCG,0.143
4,ACATACCA,0.00472
5,GAGGAAAA,-0.0356
6,AATCAGAC,-0.00129
7,CCTATGCG,-0.0587
8,CACAGGAC,-0.208
9,CTCCCGGC,0.0257
10,ATAGATGG,0.0887
11,AGAGCCAA,-0.308
12,AGGGCCAG,-0.183
13,ACACTGCC,0.0567
14,ATAACATC,0.165
15,CCCGCGGA,0.205
16,ACACTAGA,0.0257
17,CAAGAGTG,-0.0889
18,GCAGTCGC,-0.218
19,GCCCGTAC,-0.144
20,AGACAACG,-0.103
21,ACAGGGGA,-0.0346
22,AGGCCTAT,-0.111
23,CAATTGAC,-0.17
24,ATATCGTG,0.376
25,CATGGGAA,0.0631

row,Sequence,binding signal [E-score]
1,ACCCCCAC,-0.00921
2,ACGCCTCG,-0.153
3,ACTGGAGC,-0.0378
4,CGAGTACC,0.185
5,CCGTCGCA,-0.162
6,ATCCCTAG,0.284
7,TGGCAGAA,-0.112
8,ATGGCGGC,0.0545
9,CGGGGCCC,0.0382
10,AAATAGTG,-0.17
11,GAGTAGGC,-0.0274
12,ACTGATGG,-0.158
13,ATTTGGGC,-0.313
14,CCAGTCTC,-0.11
15,GGGTCTCA,0.266
16,ACGTTGGC,-0.223
17,CACGAAAC,-0.011
18,CAATACCG,0.354
19,CAGGATGG,-0.00159
20,AATCAAGA,-0.108
21,CGTACTCC,0.00017
22,GGTGGTCA,0.0295
23,CAAACAGC,-0.231
24,GCGGGGTA,0.329
25,CGTAGCCC,-0.0502

row,Sequence,binding signal [E-score]
1,CGGCGTAA,-0.154
2,TGCCCCCA,-0.312
3,CCCTCGTC,-0.237
4,ATCATAGC,0.249
5,ATCCGTAA,0.22
6,CAAAAACA,-0.134
7,CGTGACAA,0.111
8,CAGTTACC,-0.151
9,TAACGGAA,-0.233
10,ATAACGGA,0.11
11,CAGGGTGA,0.0609
12,GCGCTCCA,-0.131
13,AGGCATCC,-0.0679
14,GGGGACTA,0.0793
15,ACTGAAGA,-0.111
16,CTGAAAAG,-0.125
17,AGGGAGCG,-0.119
18,AACAGCCC,-0.283
19,AGTCCTTC,-0.201
20,CTAGTTTC,0.141
21,CTCTGCCC,-0.145
22,AACACCCT,0.21
23,CCCTTGCC,-0.0944
24,ACCCTGTA,0.169
25,AACCCGAC,0.0556

row,Sequence,binding signal [E-score]
1,AGTGTCGA,0.0558
2,ACTATAGC,-0.0814
3,ACAAAATG,-0.232
4,ATCAGTGG,0.261
5,ACGGGCCG,-0.0799
6,ATGTGGAC,-0.0701
7,CATACACA,0.145
8,AAAGATGG,-0.111
9,AAGGGAAT,-0.142
10,ACCTGATA,0.401
11,TAACTAAA,-0.0307
12,GACCTCAA,-0.185
13,GTCTGCAA,-0.28
14,CGCGCTAA,-0.0443
15,ATAAGATG,0.108
16,AAGGAACA,-0.21
17,ACACTATG,0.0853
18,ACCCATAC,0.112
19,CATCTCCC,-0.0178
20,CTCTGCTA,-0.0534
21,ATGCCGCG,-0.0391
22,CAATTTGG,-0.206
23,CAAATTCG,0.0418
24,ACTAAAAA,-0.0718
25,CCACGTCC,-0.218

row,Sequence,binding signal [E-score]
1,CTTCTAGA,0.036
2,CACCGTGG,0.118
3,AGATCCCG,0.302
4,CATCACGC,-0.158
5,AATATGGG,0.218
6,CCCGGGAG,-0.0537
7,AAAGTCAT,-0.239
8,CATTCTTC,-0.0379
9,AAACCTCA,-0.017
10,AAAAAATA,0.0531
11,CATGCCCC,0.0549
12,ACACCTCA,0.24
13,GTGCAGCA,-0.211
14,ACTCGGAA,-0.0624
15,CTGAAATC,-0.0654
16,ATGATAGG,0.387
17,GGATAGCA,0.241
18,AAAAGAGC,-0.199
19,CAGCAACG,-0.186
20,AGCTAGCG,-0.246
21,CGAACCAC,-0.17
22,ATGCGCTA,-0.0891
23,ACACCATC,0.312
24,ATCGATAA,0.0591
25,AACTACTG,-0.239

row,Sequence,binding signal [E-score]
1,AAGTCGTC,-0.0812
2,AGCTAGAC,-0.2
3,TAGTTGAA,0.0609
4,AACAACTA,-0.175
5,GCGTCGAA,-0.0235
6,GGTTGTAA,-4.5e-05
7,AAAAAGTA,-0.0612
8,GGTACGGA,-0.00577
9,GAACTTAA,-0.194
10,AGGGCCTC,-0.226
11,GGTACCTA,-0.0453
12,TTATACAA,0.14
13,AAGAGTGG,-0.179
14,GACTAGCA,-0.144
15,AGACCACG,-0.195
16,ATCGTAGG,0.16
17,GACAGCGA,-0.235
18,GACCTTGC,-0.146
19,AGAATGAC,-0.0857
20,ATTACCAC,-0.0185
21,ATCCCCTA,0.374
22,CAGGCAGG,-0.0188
